# The list shows a part of the results.
# Legend:
# Assay in all cases: glycan array binding signal (z-score within array); higher = stronger binding
# Settings in all cases: glycan notation: IUPAC condensed, linker removed
# [1] = target: Neu5Ac(a2-3)Gal(b1-4)GlcNAc(b1-3)[Neu5Ac(a2-3)Gal(b1-4)GlcNAc(b1-6)]GalNAc
# Procedure, shortened: (§1)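 Glycan array data came from 3228 arrays in the Consortium for Functional Glycomics database, and only arrays with an available protein sequence were kept. Glycan names were put into IUPAC-condensed notation, and columns mapping to the same glycan were averaged. The binding signal is a within-array Z-score, averaged across arrays of one protein sequence run at different concentrations or buffers and across linkers. A negative Z-score can be read as non-binding.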
# [2] = target: Neu5Ac(a2-3)Gal(b1-4)GlcNAc(b1-6)GalNAc
# Procedure, shortened: as §1
# [3] = target: Neu5Ac(a2-3)Gal(b1-4)GlcNAc(b1-6)[Gal(b1-3)]GalNAc
# Procedure, shortened: as §1
# [4] = target: Neu5Ac(a2-3)Gal(b1-4)GlcNAc(b1-6)[Neu5Ac(a2-3)Gal(b1-3)]GalNAc
# Procedure, shortened: as §1
# [5] = target: Neu5Ac(a2-3)Gal(b1-4)GlcNAc6S
# Procedure, shortened: as §1
# [6] = target: Neu5Ac(a2-3)Gal(b1-4)[Fuc(a1-3)]GlcNAc
# Procedure, shortened: as §1
# [7] = target: Neu5Ac(a2-3)Gal(b1-4)[Fuc(a1-3)]GlcNAc(b1-2)Man
# Procedure, shortened: as §1
# [8] = target: Neu5Ac(a2-3)Gal(b1-4)[Fuc(a1-3)]GlcNAc(b1-3)Gal
# Procedure, shortened: as §1
# [9] = target: Neu5Ac(a2-3)Gal(b1-4)[Fuc(a1-3)]GlcNAc(b1-3)Gal(b1-4)GlcNAc
# Procedure, shortened: as §1
# [10] = target: Neu5Ac(a2-3)Gal(b1-4)[Fuc(a1-3)]GlcNAc(b1-3)Gal(b1-4)[Fuc(a1-3)]GlcNAc(b1-3)Gal(b1-4)[Fuc(a1-3)]GlcNAc
# Procedure, shortened: as §1
# [11] = target: Neu5Ac(a2-3)Gal(b1-4)[Fuc(a1-3)]GlcNAc(b1-3)GalNAc
# Procedure, shortened: as §1
# [12] = target: Neu5Ac(a2-3)Gal(b1-4)[Fuc(a1-3)]GlcNAc(b1-6)[Gal(b1-3)]GalNAc
# Procedure, shortened: as §1
# [13] = target: Neu5Ac(a2-3)Gal(b1-4)[Fuc(a1-3)]GlcNAc(b1-6)[Neu5Ac(a2-3)Gal(b1-3)]GalNAc
# Procedure, shortened: as §1
# [14] = target: Neu5Ac(a2-3)Gal(b1-4)[Fuc(a1-3)]GlcNAc6S
# Procedure, shortened: as §1
# [15] = target: Neu5Ac(a2-3)Gal6S(b1-4)GlcNAc
# Procedure, shortened: as §1
# [16] = target: Neu5Ac(a2-3)Gal6S(b1-4)[Fuc(a1-3)]GlcNAc
# Procedure, shortened: as §1
# Neu5Ac(a2-3)GalNAc = target: Neu5Ac(a2-3)GalNAc
# Procedure, shortened: as §1
# [17] = target: Neu5Ac(a2-3)GalNAc(b1-4)GlcNAc
# Procedure, shortened: as §1
# [18] = target: Neu5Ac(a2-3)[GalNAc(b1-4)]Gal(b1-4)Glc
# Procedure, shortened: as §1
# [19] = target: Neu5Ac(a2-3)[GalNAc(b1-4)]Gal(b1-4)GlcNAc
# Procedure, shortened: as §1
# [20] = target: Neu5Ac(a2-3)[GalNAc(b1-4)]Gal(b1-4)GlcNAc(b1-3)GalNAc
# Procedure, shortened: as §1
# [21] = target: Neu5Ac(a2-3)[Neu5Ac(a2-6)]GalNAc
# Procedure, shortened: as §1
# Neu5Ac(a2-6)Gal = target: Neu5Ac(a2-6)Gal
# Procedure, shortened: as §1
# [22] = target: Neu5Ac(a2-6)Gal(b1-3)GlcNAc(b1-3)[Gal(b1-4)GlcNAc(b1-6)]Gal(b1-4)Glc
# Procedure, shortened: as §1
# Neu5Ac(a2-6)Gal(b1-4)Glc = target: Neu5Ac(a2-6)Gal(b1-4)Glc
# Procedure, shortened: as §1
# [23] = target: Neu5Ac(a2-6)Gal(b1-4)GlcNAc
# Procedure, shortened: as §1
# [24] = target: Neu5Ac(a2-6)Gal(b1-4)GlcNAc(b1-2)Man
# Procedure, shortened: as §1
# [25] = target: Neu5Ac(a2-6)Gal(b1-4)GlcNAc(b1-2)Man(a1-3)Man(b1-4)GlcNAc(b1-4)GlcNAc
# Procedure, shortened: as §1
# [26] = target: Neu5Ac(a2-6)Gal(b1-4)GlcNAc(b1-2)Man(a1-3)[Gal(b1-4)GlcNAc(b1-2)Man(a1-6)]Man(b1-4)GlcNAc(b1-4)GlcNAc
# Procedure, shortened: as §1
# [27] = target: Neu5Ac(a2-6)Gal(b1-4)GlcNAc(b1-2)Man(a1-3)[GlcNAc(b1-2)Man(a1-6)]Man(b1-4)GlcNAc(b1-4)GlcNAc
# Procedure, shortened: as §1
# [28] = target: Neu5Ac(a2-6)Gal(b1-4)GlcNAc(b1-2)Man(a1-3)[GlcNAc(b1-2)Man(b1-4)GlcNAc(b1-2)Man(a1-6)]Man(b1-4)GlcNAc(b1-4)GlcNAc
# Procedure, shortened: as §1
# [29] = target: Neu5Ac(a2-6)Gal(b1-4)GlcNAc(b1-2)Man(a1-3)[GlcNAc(b1-4)][Neu5Ac(a2-6)Gal(b1-4)GlcNAc(b1-2)Man(a1-6)]Man(b1-4)GlcNAc(b1-4)GlcNAc
# Procedure, shortened: as §1
# [30] = target: Neu5Ac(a2-6)Gal(b1-4)GlcNAc(b1-2)Man(a1-3)[Man(a1-6)]Man(b1-4)GlcNAc(b1-4)GlcNAc
# Procedure, shortened: as §1
# [31] = target: Neu5Ac(a2-6)Gal(b1-4)GlcNAc(b1-2)Man(a1-3)[Neu5Ac(a2-3)Gal(b1-4)GlcNAc(b1-2)Man(a1-6)]Man(b1-4)GlcNAc(b1-4)GlcNAc
# Procedure, shortened: as §1
# [32] = target: Neu5Ac(a2-6)Gal(b1-4)GlcNAc(b1-2)Man(a1-3)[Neu5Ac(a2-6)Gal(b1-4)GlcNAc(b1-2)Man(a1-6)]Man(b1-4)GlcNAc(b1-4)GlcNAc
# Procedure, shortened: as §1
# [33] = target: Neu5Ac(a2-6)Gal(b1-4)GlcNAc(b1-2)Man(a1-3)[Neu5Ac(a2-6)Gal(b1-4)GlcNAc(b1-2)Man(a1-6)]Man(b1-4)GlcNAc(b1-4)[Fuc(a1-6)]GlcNAc
# Procedure, shortened: as §1
# [34] = target: Neu5Ac(a2-6)Gal(b1-4)GlcNAc(b1-2)Man(a1-6)Man(b1-4)GlcNAc(b1-4)GlcNAc
# Procedure, shortened: as §1
binder,measurement,setting,value
"Gal 4 (Mus musculus), P56470 (protein) MAYVPAPGYQPTYNPTLPYYQPIPGGLNVGMSVYIQGVASEHMKRFFVNFVVGQDPGSDVAFHFNPRFDGWDKVVFNTLQGGKWGSEERKRSMPFKKGAAFELVFIVLAEHYKVVVNGNPFYEYGHRLPLQMVTHLQVDGDLQLQSINFIGGQPLRPQGPPMMPPYPGPGHCHQQLNSLPTMEGPPTFNPPVPYFGRLQGGLTARRTIIIKGYVPPTGKSFAINFKVGSSGDIALHINPRMGNGTVVRNSLLNGSWGSEEKKITHNPFGPGQFFDLSIRCGLDRFKVYANGQHLFDFAHRLSAFQRVDTLEIQGDVTLSYVQI",glycan array binding signal (z-score),[1],-0.261
same,glycan array binding signal (z-score),[2],-0.314
same,glycan array binding signal (z-score),[3],-0.228
same,glycan array binding signal (z-score),[4],-0.233
same,glycan array binding signal (z-score),[5],-0.234
same,glycan array binding signal (z-score),[6],-0.235
same,glycan array binding signal (z-score),[7],-0.297
same,glycan array binding signal (z-score),[8],-0.242
same,glycan array binding signal (z-score),[9],-0.188
same,glycan array binding signal (z-score),[10],-0.237
same,glycan array binding signal (z-score),[11],-0.131
same,glycan array binding signal (z-score),[12],-0.204
same,glycan array binding signal (z-score),[13],-0.185
same,glycan array binding signal (z-score),[14],-0.226
same,glycan array binding signal (z-score),[15],-0.224
same,glycan array binding signal (z-score),[16],-0.242
same,glycan array binding signal (z-score),Neu5Ac(a2-3)GalNAc,-0.225
same,glycan array binding signal (z-score),[17],-0.227
same,glycan array binding signal (z-score),[18],-0.229
same,glycan array binding signal (z-score),[19],-0.234
same,glycan array binding signal (z-score),[20],-0.197
same,glycan array binding signal (z-score),[21],-0.218
same,glycan array binding signal (z-score),Neu5Ac(a2-6)Gal,-0.219
same,glycan array binding signal (z-score),[22],-0.226
same,glycan array binding signal (z-score),Neu5Ac(a2-6)Gal(b1-4)Glc,-0.211
same,glycan array binding signal (z-score),[23],-0.231
same,glycan array binding signal (z-score),[24],-0.318
same,glycan array binding signal (z-score),[25],-0.214
same,glycan array binding signal (z-score),[26],-0.202
same,glycan array binding signal (z-score),[27],-0.244
same,glycan array binding signal (z-score),[28],-0.209
same,glycan array binding signal (z-score),[29],-0.295
same,glycan array binding signal (z-score),[30],-0.235
same,glycan array binding signal (z-score),[31],-0.377
same,glycan array binding signal (z-score),[32],-0.226
same,glycan array binding signal (z-score),[33],-0.261
same,glycan array binding signal (z-score),[34],-0.225
